PubChem BioAssay AID686970 (National Center for Advancing Translational Sciences (NCATS), 2013)
The campaign covered roughly 360,000 compounds. About 6,000 (1.7%) were called active. This list was built around the results that the source calls inconclusive (neither active nor inactive); the mix of calls is not that of the screen. The call rests on the fitted dose curve; in most records, active means well fitted cell-killing curve with a large enough effect; inconclusive means small, poorly fitted or top-dose-only effect, or effect the other way; inactive means flat fitted curve, though single readings scatter. No potency is given beside an inconclusive call; the fits are too rough.

assay: qHTS for induction of synthetic lethality in tumor cells producing 2HG: qHTS for the HT-1080-NT fibrosarcoma cell line; settings: HT-1080-NT fibrosarcoma viability, CellTiter-Glo ATP luminescence, 48 h; series mostly up to 46.1 µM;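 further: NT is the 2HG producing partner of a matched IDH1 knockdown line; nearly all actives have a fitted effect of over 55% in size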
Method in brief: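 Compounds were tested in concentration-response format on HT-1080-NT cells for 48 hours at 37 degrees C. Cell viability came from CellTiter-Glo luminescence; curves were classified by r2, response magnitude and activity.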
Potency means the concentration at half of the fitted maximal effect; tags describe the fitted curve by direction and shape.

Compound	Potency
CN=c1scc(-c2ccc(F)cc2)n1/N=C/c1ccc(O)c(O)c1	inconclusive [cytotoxic, single point]
c1ccc2c(c1)COc1c3ncccc3nn1-2	inactive
COc1cccc(/C=C2/Sc3ccc(C(=O)NCCN4CCCCCC4)cc3NC2=O)c1	inconclusive [cytotoxic, single point]
CCc1ccc2c(c1)NC(=O)C2(C)Cc1ccc(C(F)(F)F)o1 (configuration not stated)	inactive
O=S(=O)(NCCSCc1ccc(Cl)c(Cl)c1)c1ccc2c(c1)OCCO2	inconclusive [cytotoxic, single point]
COc1cccc(/C=N/Nc2ncnc3scc(-c4ccccc4)c23)c1OC	active: 20 µM
O=C(Nc1cccc(S(=O)(=O)N2CCOCC2)c1)c1ccc2c(=O)n3c(nc2c1)CCCCC3	inconclusive [cytotoxic, single point]
COc1c(N2C[C@@H]3CCCN[C@@H]3C2)c(F)cc2c(=O)c(C(=O)O)cn(C3CC3)c12	inactive
O=C(CCc1ccccc1)c1ccc2c(c1)OCCCO2	inactive
Clc1nc2ccccc2cc1/C=N/Nc1nc2ccccc2[nH]1	inconclusive [cytotoxic, full curve, poor fit]
CCCCN(CCCC)CC(O)COc1ccccc1Br (configuration not stated)	inactive
Cc1cc(NC(=O)c2cncc(Br)c2)ccc1NC(=O)c1cc2ccccc2o1	inactive
CCN1CCN(c2c(/C=C3\SC(=S)N(Cc4ccco4)C3=O)c(C)c(C#N)c(=O)n2C)CC1	active: 16.4 µM
CC(C)c1ccc(CC(=O)N2CCC2(C)C(=O)Nc2cnc3ccccc3c2)cc1 (configuration not stated)	inconclusive [cytotoxic, partial curve]
O=c1[nH]c(C2CCN(S(=O)(=O)c3ccccc3)CC2)nc2c1nnn2Cc1c(F)cccc1Cl	inconclusive [cytotoxic, single point]
Cc1cc(OCC(O)CN2CCN(c3ccccn3)CC2)cc(C)c1Cl (configuration not stated)	active: 16.4 µM
CC(O)CNCCNCc1c(OCc2ccccc2)ccc2ccccc12 (configuration not stated)	active: 17.8 µM
CC12CCC(=O)C=C1CCC1C3CC(O)C(O)(C(=O)CO)C3(C)CC(O)C12F (configuration not stated)	inconclusive [rising, partial curve]
CC(=O)N(C)N1c2ccccc2CCc2ccccc21	inactive
COc1cccc(C(=O)NNC(=O)c2ccc3ccccc3c2O)c1	inactive
CSc1ccc(C2c3[nH]c4ccccc4c3CCN2C(=O)c2ccnn2C)cc1 (configuration not stated)	inconclusive [cytotoxic, single point]
CC(=O)Nc1ccc(-c2ccnc3c2CC(C(=O)Nc2cccnc2)O3)cc1 (configuration not stated)	active: 13 µM
Nc1ncc(Br)cc1S(=O)(=O)NCCC(=O)NCc1ccc(F)cc1	inactive
Cc1nc2ccccc2c(=O)n1NC(=O)c1ccc(Cl)c([N+](=O)[O-])c1	inconclusive [cytotoxic, single point]

Compound	Potency
c1ccc2oc(SCc3cn4ccccc4n3)nc2c1	inconclusive [cytotoxic, single point]
COc1ccc(-c2cc(C)no2)cc1S(=O)(=O)N1CCN(c2cccc(C)c2)C(C)C1 (configuration not stated)	inconclusive [cytotoxic, single point]
OC(c1cccc(Cl)c1)c1nc(-c2ccc(F)c(Cl)c2)cs1 (configuration not stated)	inconclusive [cytotoxic, single point]
O=C1C(N2CCOCC2)=C(n2nnc3ccccc32)C(=O)c2ccccc21	active: 11.6 µM
O=C(CSc1ccc(Cl)cc1)Nc1ccc(N2CCN(C(=O)c3ccco3)CC2)cc1	inconclusive [cytotoxic, single point]
O=C(Cc1cccc(NC(=O)C2CCN(C(=O)CCc3ccccc3)CC2)c1)Nc1cccc(C(=O)N2CCCCC2)c1	inactive
COc1cc(OC)cc(C(=O)NC(=S)NCCc2ccccc2)c1	inconclusive [cytotoxic, single point]
S=C(NCc1ccco1)Nc1ccc(Cl)c(Cl)c1	inconclusive [cytotoxic, single point]
O=C(CNCc1ccc(F)cc1)Nc1ccc(C(=O)N2CCCCC2)cc1	inactive
NC(=O)c1cccc(Nc2nc(C(N)CCc3ccccc3)cs2)n1 (configuration not stated)	inconclusive [cytotoxic, single point]
CCN(CC)S(=O)(=O)c1ccc(C(=O)N(c2ccc(C)cc2)C2C=CS(=O)(=O)C2)cc1 (configuration not stated)	inconclusive [rising, single point]
COc1ccc(Br)c(OC)c1C(=O)NC(=O)Nc1nc(C)cc(C)n1	inconclusive [rising, single point]
Cc1nn(Cc2ccc(Cl)cc2Cl)c(C)c1NC(=O)c1nn(C)cc1Cl	inactive
O=Cc1ccc(Oc2nc(Cl)ncc2F)cc1	inactive
Cc1cccc(NC(=O)C2CCN(S(=O)(=O)c3ccc(Cl)cc3)CC2)n1	inconclusive [cytotoxic, partial curve]
CS(=O)c1nc(-c2ccc(Br)cc2)cc(-c2ccccc2)c1C#N (configuration not stated)	active: 5.62 µM
O=C(/C=C/c1ccccc1)Nc1cccc(C(=O)N2CCCC2)c1	inactive
Cc1ccc(F)cc1-c1cc2nc(NCCCN(C)C)n(C)c(=O)c2s1	active: 20.6 µM
O=C(Nc1nc(-c2cccs2)cs1)c1ccc(S(=O)(=O)N2CCCC2)cc1	inconclusive [cytotoxic, partial curve]
CN(C)C1=NC[C@H](Cc2ccccc2)N1CCc1cccc(F)c1	inactive
CC(=O)c1ccc(-c2cnc3c(NC=O)cc(-c4ccc(S(C)(=O)=O)cc4)cn23)cc1	inconclusive [cytotoxic, full curve]
Cc1ccc(-n2[nH]c(C)c(/C=N/n3c(C)nc4ccccc4c3=O)c2=O)cc1	active: 17.8 µM
O=C(Nc1ccc(Cl)cc1)C1c2cccc[n+]2CC(=O)N1Cc1ccc2c(c1)OCO2 (configuration not stated)	inconclusive [cytotoxic, single point]
